# Whole data set: some 2,900 compounds, median “NF-kB SEAP reporter activity, fold change vs agonist alone” near 0.99, cut for the highest 2% near 2.6. Some of the results follow.
# Key:
# RAW-Dual [1] = assay: NF-kB SEAP reporter activity, fold change vs agonist alone; higher = enhanced NF-kB activity; conditions: library stock concentration (final ~1000-fold dilution): 10 mM
# How it was run: (§1)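 Library stock was pin-tooled at 50 nL into 384-well plates of RAW-Dual macrophages (50,000 cells/well, DMEM), followed 1 h later by a PRR agonist, and the cells were kept at 37 °C, 5% CO2. Supernatant collected after 20 hours was read for IRF by QuantiLuc luminescence and for NF-κB by QuantiBlue absorbance at 620 nm. Reporter activity is fold change over agonist-alone wells, and a well counted as cytotoxic when its IncuCyte confluency was below 70% of agonist controls in both mask sets.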
# RAW-Dual [2] = assay: NF-kB SEAP reporter activity, fold change vs agonist alone; cytotoxicity flag (confluency mask): not cytotoxic; higher = enhanced NF-kB activity
# How it was run: as §1
# RAW-Dual [3] = assay: NF-kB SEAP reporter activity, fold change vs agonist alone; cytotoxicity flag (confluency mask): cytotoxic (confluency <70% of control); higher = enhanced NF-kB activity
# How it was run: as §1
# [4] = cytotoxicity flag (confluency mask): not cytotoxic, agonist: Imiquimod (TLR7) […]
# [5] = cytotoxicity flag (confluency mask): not cytotoxic, agonist: MPLA (TLR4) […]
# [6] = agonist: ODN 1826 (TLR9) 0.5 ug/mL
# [7] = agonist: Pam2CSK4 (TLR2/6) 0.1 ug/mL
# [8] = agonist: Pam3CSK4 (TLR2/1) 0.1 ug/mL
smiles,measurement,setting,value
Cc1cc(F)c(C(=O)Nc2cccc(-c3nncn3C(C)C)n2)cc1-n1cnc(C2CC2)c1,NF-kB SEAP reporter activity,RAW-Dual [1]; [4],0.705
same,NF-kB SEAP reporter activity,RAW-Dual [1]; [5],0.821
Cc1cc(F)c(C(=O)Nc2cccc(-c3nncn3C(C)C)n2)cc1-n1cnc(C2CC2)c1 (library stock concentration (final ~1000-fold dilution): 10 mM),NF-kB SEAP reporter activity,RAW-Dual [2]; agonist: LPS (TLR4) 0.1 ug/mL,0.948
same,NF-kB SEAP reporter activity,RAW-Dual [2]; [6],0.467
same,NF-kB SEAP reporter activity,RAW-Dual [2]; [7],0.432
same,NF-kB SEAP reporter activity,RAW-Dual [2]; [8],0.56
O=C(Nc1ccc(CN2CCOCC2)cc1)c1ccc(-c2cccc(Cl)c2)o1,NF-kB SEAP reporter activity,RAW-Dual [1]; [4],1.04
same,NF-kB SEAP reporter activity,RAW-Dual [1]; [5],1.09
O=C(Nc1ccc(CN2CCOCC2)cc1)c1ccc(-c2cccc(Cl)c2)o1 (library stock concentration (final ~1000-fold dilution): 10 mM),NF-kB SEAP reporter activity,RAW-Dual [2]; agonist: LPS (TLR4) 0.1 ug/mL,1.84
same,NF-kB SEAP reporter activity,RAW-Dual [2]; [6],1.14
same,NF-kB SEAP reporter activity,RAW-Dual [2]; [7],0.967
same,NF-kB SEAP reporter activity,RAW-Dual [2]; [8],1.21
CC(C)Oc1ccc(C(=O)NC(CNC(=O)CN(C)C)Cc2ccc(-c3cn4cccc(C(C)O)c4n3)cc2)cc1Cl (stereo unspecified),NF-kB SEAP reporter activity,RAW-Dual [1]; [4],1.37
same,NF-kB SEAP reporter activity,RAW-Dual [1]; [5],1.39
CC(C)Oc1ccc(C(=O)NC(CNC(=O)CN(C)C)Cc2ccc(-c3cn4cccc(C(C)O)c4n3)cc2)cc1Cl (stereo unspecified) (library stock concentration (final ~1000-fold dilution): 10 mM),NF-kB SEAP reporter activity,RAW-Dual [2]; agonist: LPS (TLR4) 0.1 ug/mL,0.934
same,NF-kB SEAP reporter activity,RAW-Dual [2]; [6],0.199
same,NF-kB SEAP reporter activity,RAW-Dual [2]; [7],1.02
same,NF-kB SEAP reporter activity,RAW-Dual [2]; [8],1.03
N=C(CCl)NCCCC(NC(=O)c1ccccc1)C(N)=O.O=C(O)C(F)(F)F (stereo unspecified) (library stock concentration (final ~1000-fold dilution): 10 mM),NF-kB SEAP reporter activity,RAW-Dual [2]; agonist: LPS (TLR4) 0.1 ug/mL,1.4
same,NF-kB SEAP reporter activity,RAW-Dual [2]; [6],0.884
same,NF-kB SEAP reporter activity,RAW-Dual [2]; [7],0.846
same,NF-kB SEAP reporter activity,RAW-Dual [2]; [8],0.987
N=C(CCl)NCCCC(NC(=O)c1ccccc1)C(N)=O.O=C(O)C(F)(F)F (stereo unspecified),NF-kB SEAP reporter activity,RAW-Dual [1]; [4],0.949
same,NF-kB SEAP reporter activity,RAW-Dual [1]; [5],0.915
CN1C(=N)NC(C)(c2cc(NC(=O)c3ccc(F)cn3)ccc2F)CS1(=O)=O (stereo unspecified),NF-kB SEAP reporter activity,RAW-Dual [1]; [4],0.847
same,NF-kB SEAP reporter activity,RAW-Dual [1]; [5],0.931
CN1C(=N)NC(C)(c2cc(NC(=O)c3ccc(F)cn3)ccc2F)CS1(=O)=O (stereo unspecified) (library stock concentration (final ~1000-fold dilution): 10 mM),NF-kB SEAP reporter activity,RAW-Dual [2]; agonist: LPS (TLR4) 0.1 ug/mL,0.906
same,NF-kB SEAP reporter activity,RAW-Dual [2]; [6],0.673
same,NF-kB SEAP reporter activity,RAW-Dual [2]; [7],0.747
same,NF-kB SEAP reporter activity,RAW-Dual [2]; [8],0.657
CC(C)(O)CC(=O)NCCn1ccc2ncnc(Nc3ccc(Oc4cccc(C(F)(F)F)c4)c(Cl)c3)c21,NF-kB SEAP reporter activity,"RAW-Dual [1]; cytotoxicity flag (confluency mask): cytotoxic (confluency <70% of control), agonist: Imiquimod (TLR7) […]",0.295
same,NF-kB SEAP reporter activity,"RAW-Dual [1]; cytotoxicity flag (confluency mask): cytotoxic (confluency <70% of control), agonist: MPLA (TLR4) […]",0.201
CC(C)(O)CC(=O)NCCn1ccc2ncnc(Nc3ccc(Oc4cccc(C(F)(F)F)c4)c(Cl)c3)c21 (library stock concentration (final ~1000-fold dilution): 10 mM),NF-kB SEAP reporter activity,RAW-Dual [3]; agonist: LPS (TLR4) 0.1 ug/mL,0.235
same,NF-kB SEAP reporter activity,RAW-Dual [3]; [6],0.198
same,NF-kB SEAP reporter activity,RAW-Dual [3]; [7],0.0882
same,NF-kB SEAP reporter activity,RAW-Dual [3]; [8],0.151
CCC1(C)CC(=O)NC1=O (stereo unspecified),NF-kB SEAP reporter activity,RAW-Dual [1]; [5],0.978
CCC1(C)CC(=O)NC1=O (stereo unspecified) (library stock concentration (final ~1000-fold dilution): 10 mM),NF-kB SEAP reporter activity,RAW-Dual [2]; agonist: LPS (TLR4) 0.1 ug/mL,1.25
same,NF-kB SEAP reporter activity,RAW-Dual [2]; [6],0.986
same,NF-kB SEAP reporter activity,RAW-Dual [2]; [7],1.31
same,NF-kB SEAP reporter activity,RAW-Dual [2]; [8],1.08

# From the supplement of paper PMC10037445
